# Results from the supplement of paper PMC8728848.
# This is one part of the list.
# B1: DrGRIFIN (Danio rerio), Q6DGJ1 (protein)
# chain: MTLRFEASCPDGLCPGWSVILKGETPPEASKFEINFLCDRDDRVAFHFNPRFTESDIICNSYMANRWGQEERCNHFPLGVEEPFQIEIYSDNDHFHVYIDKAKVMQYKHRVEDLKTITKLQVVNDVKISSLEITKKLFY
# Legend:
# Assay in all cases: glycan array binding signal (z-score within array); higher = stronger binding
# Settings in all cases: glycan notation: IUPAC condensed, linker removed
# [1] = target: GalNAc(b1-4)GlcNAc(b1-2)Man
# Procedure, shortened: (§1)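 The binding signal is a Z-score computed within each array. Data were drawn from 3228 arrays in the Consortium for Functional Glycomics database, restricted to those with a known protein sequence. Scores were averaged over arrays of the same protein sequence at different concentrations or buffers, and over linkers, and negative values can be taken as non-binding.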
# [2] = target: GalNAc(b1-4)GlcNAc(b1-2)Man(a1-3)[GalNAc(b1-4)GlcNAc(b1-2)Man(a1-6)]Man(b1-4)GlcNAc(b1-4)GlcNAc
# Procedure, shortened: as §1
# [3] = target: GalNAc(b1-4)GlcNAc(b1-3)GalNAc(b1-4)GlcNAc
# Procedure, shortened: as §1
# GalNAc(b1-4)GlcNAc6S = target: GalNAc(b1-4)GlcNAc6S
# Procedure, shortened: as §1
# GalNAc(b1-6)GalNAc = target: GalNAc(b1-6)GalNAc
# Procedure, shortened: as §1
# GalNAc3S(b1-4)GlcNAc = target: GalNAc3S(b1-4)GlcNAc
# Procedure, shortened: as §1
# GalNAc3S(b1-4)GlcNAc3S = target: GalNAc3S(b1-4)GlcNAc3S
# Procedure, shortened: as §1
# [4] = target: GalNAc3S(b1-4)[Fuc(a1-3)]GlcNAc
# Procedure, shortened: as §1
# GalNAc4S6S(b1-4)GlcNAc = target: GalNAc4S6S(b1-4)GlcNAc
# Procedure, shortened: as §1
# GalNAc6S(b1-4)GlcNAc = target: GalNAc6S(b1-4)GlcNAc
# Procedure, shortened: as §1
# Glc(a1-4)Glc = target: Glc(a1-4)Glc
# Procedure, shortened: as §1
# [5] = target: Glc(a1-4)Glc(a1-4)Glc(a1-4)Glc
# Procedure, shortened: as §1
# Glc(a1-6)Glc(a1-6)Glc = target: Glc(a1-6)Glc(a1-6)Glc
# Procedure, shortened: as §1
# [6] = target: Glc(a1-6)Glc(a1-6)Glc(a1-6)Glc
# Procedure, shortened: as §1
# Glc(b1-4)Glc = target: Glc(b1-4)Glc
# Procedure, shortened: as §1
# Glc(b1-6)Glc = target: Glc(b1-6)Glc
# Procedure, shortened: as §1
# GlcA(b1-3)Gal = target: GlcA(b1-3)Gal
# Procedure, shortened: as §1
# GlcA(b1-3)GlcNAc = target: GlcA(b1-3)GlcNAc
# Procedure, shortened: as §1
# GlcA(b1-6)Gal = target: GlcA(b1-6)Gal
# Procedure, shortened: as §1
# [7] = target: GlcA3S(b1-3)Gal(b1-4)GlcNAc(b1-2)Man
# Procedure, shortened: as §1
# [8] = target: GlcA3S(b1-3)Gal(b1-4)GlcNAc(b1-3)Gal(b1-4)Glc
# Procedure, shortened: as §1
# [9] = target: GlcNAc(a1-3)Gal(b1-4)GlcNAc
# Procedure, shortened: as §1
# [10] = target: GlcNAc(a1-4)Gal(b1-3)GlcNAc
# Procedure, shortened: as §1
# [11] = target: GlcNAc(a1-4)Gal(b1-4)GalNAc
# Procedure, shortened: as §1
# [12] = target: GlcNAc(a1-4)Gal(b1-4)GlcNAc
# Procedure, shortened: as §1
# [13] = target: GlcNAc(a1-4)Gal(b1-4)GlcNAc(b1-3)Gal(b1-4)Glc
# Procedure, shortened: as §1
# [14] = target: GlcNAc(a1-4)Gal(b1-4)GlcNAc(b1-3)Gal(b1-4)GlcNAc
# Procedure, shortened: as §1
# [15] = target: GlcNAc(a1-4)Gal(b1-4)GlcNAc(b1-3)Gal(b1-4)GlcNAc(b1-3)Gal(b1-4)GlcNAc
# Procedure, shortened: as §1
# [16] = target: GlcNAc(a1-4)Gal(b1-4)GlcNAc(b1-3)Gal(b1-4)[Fuc(a1-3)]GlcNAc(b1-3)Gal(b1-4)[Fuc(a1-3)]GlcNAc
# Procedure, shortened: as §1
# [17] = target: GlcNAc(a1-6)Gal(b1-4)GlcNAc
# Procedure, shortened: as §1
# [18] = target: GlcNAc(b1-2)Gal(b1-3)GalNAc
# Procedure, shortened: as §1
# [19] = target: GlcNAc(b1-2)Man(a1-3)[GlcNAc(b1-2)Man(a1-6)]Man(b1-4)GlcNAc(b1-4)GlcNAc
# Procedure, shortened: as §1
# [20] = target: GlcNAc(b1-2)Man(a1-3)[GlcNAc(b1-2)Man(a1-6)]Man(b1-4)GlcNAc(b1-4)[Fuc(a1-6)]GlcNAc
# Procedure, shortened: as §1
# [21] = target: GlcNAc(b1-2)Man(a1-3)[GlcNAc(b1-4)][GlcNAc(b1-2)Man(a1-6)]Man(b1-4)GlcNAc(b1-4)GlcNAc
# Procedure, shortened: as §1
# [22] = target: GlcNAc(b1-2)Man(a1-3)[GlcNAc(b1-4)][GlcNAc(b1-2)Man(a1-6)]Man(b1-4)GlcNAc(b1-4)[Fuc(a1-6)]GlcNAc
# Procedure, shortened: as §1
# [23] = target: GlcNAc(b1-2)[GlcNAc(b1-4)]Man(a1-3)[GlcNAc(b1-2)Man(a1-6)]Man(b1-4)GlcNAc(b1-4)GlcNAc
# Procedure, shortened: as §1
# [24] = target: GlcNAc(b1-2)[GlcNAc(b1-4)]Man(a1-3)[GlcNAc(b1-4)][GlcNAc(b1-2)Man(a1-6)]Man(b1-4)GlcNAc(b1-4)GlcNAc
# Procedure, shortened: as §1
# [25] = target: GlcNAc(b1-2)[GlcNAc(b1-4)]Man(a1-3)[GlcNAc(b1-4)][GlcNAc(b1-2)[GlcNAc(b1-6)]Man(a1-6)]Man(b1-4)GlcNAc(b1-4)GlcNAc
# Procedure, shortened: as §1
# [26] = target: GlcNAc(b1-2)[GlcNAc(b1-4)]Man(a1-3)[GlcNAc(b1-4)][GlcNAc(b1-2)[GlcNAc(b1-6)]Man(a1-6)]Man(b1-4)GlcNAc(b1-4)[Fuc(a1-6)]GlcNAc
# Procedure, shortened: as §1
# [27] = target: GlcNAc(b1-2)[GlcNAc(b1-6)]Man(a1-6)[GlcNAc(b1-2)Man(a1-3)]Man(b1-4)GlcNAc(b1-4)GlcNAc
# Procedure, shortened: as §1
# [28] = target: GlcNAc(b1-2)[GlcNAc(b1-6)]Man(a1-6)[GlcNAc(b1-2)Man(a1-3)]Man(b1-4)GlcNAc(b1-4)[Fuc(a1-6)]GlcNAc
# Procedure, shortened: as §1
# [29] = target: GlcNAc(b1-2)[GlcNAc(b1-6)]Man(a1-6)[GlcNAc(b1-4)][GlcNAc(b1-2)Man(a1-3)]Man(b1-4)GlcNAc(b1-4)GlcNAc
# Procedure, shortened: as §1
# GlcNAc(b1-3)Fuc = target: GlcNAc(b1-3)Fuc
# Procedure, shortened: as §1
# GlcNAc(b1-3)Gal = target: GlcNAc(b1-3)Gal
# Procedure, shortened: as §1
# [30] = target: GlcNAc(b1-3)Gal(b1-3)GalNAc
# Procedure, shortened: as §1
binder,measurement,setting,value
B1,glycan array binding signal (z-score),[1],-0.129
same,glycan array binding signal (z-score),[2],-0.157
same,glycan array binding signal (z-score),[3],-0.211
same,glycan array binding signal (z-score),GalNAc(b1-4)GlcNAc6S,-0.108
same,glycan array binding signal (z-score),GalNAc(b1-6)GalNAc,-0.185
same,glycan array binding signal (z-score),GalNAc3S(b1-4)GlcNAc,-0.052
same,glycan array binding signal (z-score),GalNAc3S(b1-4)GlcNAc3S,-0.176
same,glycan array binding signal (z-score),[4],-0.178
same,glycan array binding signal (z-score),GalNAc4S6S(b1-4)GlcNAc,-0.143
same,glycan array binding signal (z-score),GalNAc6S(b1-4)GlcNAc,-0.147
same,glycan array binding signal (z-score),Glc(a1-4)Glc,-0.161
same,glycan array binding signal (z-score),[5],-0.2
same,glycan array binding signal (z-score),Glc(a1-6)Glc(a1-6)Glc,-0.193
same,glycan array binding signal (z-score),[6],-0.138
same,glycan array binding signal (z-score),Glc(b1-4)Glc,-0.192
same,glycan array binding signal (z-score),Glc(b1-6)Glc,-0.125
same,glycan array binding signal (z-score),GlcA(b1-3)Gal,-0.117
same,glycan array binding signal (z-score),GlcA(b1-3)GlcNAc,-0.161
same,glycan array binding signal (z-score),GlcA(b1-6)Gal,-0.117
same,glycan array binding signal (z-score),[7],-0.196
same,glycan array binding signal (z-score),[8],-0.174
same,glycan array binding signal (z-score),[9],-0.164
same,glycan array binding signal (z-score),[10],-0.112
same,glycan array binding signal (z-score),[11],-0.154
same,glycan array binding signal (z-score),[12],-0.183
same,glycan array binding signal (z-score),[13],-0.154
same,glycan array binding signal (z-score),[14],-0.19
same,glycan array binding signal (z-score),[15],-0.179
same,glycan array binding signal (z-score),[16],-0.116
same,glycan array binding signal (z-score),[17],-0.119
same,glycan array binding signal (z-score),[18],-0.195
same,glycan array binding signal (z-score),[19],-0.183
same,glycan array binding signal (z-score),[20],-0.163
same,glycan array binding signal (z-score),[21],-0.095
same,glycan array binding signal (z-score),[22],-0.167
same,glycan array binding signal (z-score),[23],-0.168
same,glycan array binding signal (z-score),[24],-0.215
same,glycan array binding signal (z-score),[25],-0.165
same,glycan array binding signal (z-score),[26],-0.159
same,glycan array binding signal (z-score),[27],-0.108
same,glycan array binding signal (z-score),[28],-0.077
same,glycan array binding signal (z-score),[29],-0.239
same,glycan array binding signal (z-score),GlcNAc(b1-3)Fuc,-0.197
same,glycan array binding signal (z-score),GlcNAc(b1-3)Gal,-0.08
same,glycan array binding signal (z-score),[30],-0.171
